In all, about 33,000 sequences were measured (“E-score (-0.5 to 0.5)”: median about -0.013, highest 2% from about 0.3 on). Some of the results follow.
What follows are sequences tested against T1, Msn1 (UniProt P22148) (assay: PBM E-score (8-mer binding enrichment) (E-score (-0.5 to 0.5)); higher = stronger / more preferred TF binding; most listed sequences are background and not binding sites). Conditions: protein concentration: 200 nM; construct: GST-full length.
T1 sequence: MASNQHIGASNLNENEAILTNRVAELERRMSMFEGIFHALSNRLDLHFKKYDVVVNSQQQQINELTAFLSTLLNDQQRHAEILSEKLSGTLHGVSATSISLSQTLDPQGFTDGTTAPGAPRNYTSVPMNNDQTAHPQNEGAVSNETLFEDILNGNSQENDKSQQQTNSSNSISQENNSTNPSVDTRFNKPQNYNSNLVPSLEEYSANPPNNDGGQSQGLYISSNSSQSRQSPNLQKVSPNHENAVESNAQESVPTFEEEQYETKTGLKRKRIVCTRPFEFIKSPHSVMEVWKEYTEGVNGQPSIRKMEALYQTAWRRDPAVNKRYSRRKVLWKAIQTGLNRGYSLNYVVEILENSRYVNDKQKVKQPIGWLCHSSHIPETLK
Outline: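 GST-tagged yeast TFs (full-length or DNA-binding domain) were made by PURExpress in vitro transcription/translation and applied at about 100-200 nM to universal all-10-mer Agilent arrays. The arrays were made double-stranded by primer extension, on fresh or once-stripped slides. Bound protein was detected with fluorescent anti-GST, and scans were normalised with masliner. Each ungapped eight-base word, pooled with its reverse complement, received an E-score (modified Wilcoxon-Mann-Whitney statistic) from the Universal PBM Analysis Suite.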
In the case of CCGGGGGC, the “PBM E-score” value is reported as -0.388. ACAGAGCT was tested, and the “PBM E-score” value was -0.0882. For CCGAGGAA, the “PBM E-score” value was 0.0278. In the case of ACGTGTCT, the “PBM E-score” value is reported as 0.16. With CATGTAAG the “PBM E-score” value was 0.109. CTAAGGCC was tested, and the “PBM E-score” value was -0.0255. In the case of AATCCACT, the “PBM E-score” value is reported as 0.0791. In the case of GCCTCGCA, the “PBM E-score” value is reported as -0.101. CACAAGTA was tested, and the “PBM E-score” value was -0.0518. With AGAAGCAA the “PBM E-score” value was 0.0568. In the case of AACCGCTC, the “PBM E-score” value is reported as -0.0909. With AGAGATCG the “PBM E-score” value was -0.0703. With AGGATTGG the “PBM E-score” value was -0.0223. In the case of CCCAACCG, the “PBM E-score” value is reported as -0.165. For ACAATACG, the “PBM E-score” value was 0.0932. With ACACACTG the “PBM E-score” value was -0.00688. CGACTTCA was tested, and the “PBM E-score” value was 0.0948. In the case of ACTTTTGA, the “PBM E-score” value is reported as 0.208. With ACCATCGC the “PBM E-score” value was 0.076. With GGAGAGTA the “PBM E-score” value was -0.192. For CACTTATA, the “PBM E-score” value was 0.0245. In the case of TCTTAGAA, the “PBM E-score” value is reported as 0.297. For CTGCCAGC, the “PBM E-score” value was -0.155. CCAGAGTA was tested, and the “PBM E-score” value was -0.142. With ACTGCAAG the “PBM E-score” value was -0.0394. For AATAGCCG, the “PBM E-score” value was 0.00296. With CATTGTTC the “PBM E-score” value was -0.00315. GCTATTGA was tested, and the “PBM E-score” value was -0.0472. For AAAGTGCC, the “PBM E-score” value was 0.00184. In the case of ACAGTGCA, the “PBM E-score” value is reported as -0.0342. In the case of CACGGATA, the “PBM E-score” value is reported as 0.173. For ACTTCATA, the “PBM E-score” value was -0.0395. In the case of CTGAGGTA, the “PBM E-score” value is reported as -0.0788. In the case of CACTAAGG, the “PBM E-score” value is reported as -0.017. ACACATAT was tested, and the “PBM E-score” value was 0.155. With CAATGACC the “PBM E-score” value was -0.0865. GCGTGATA was tested, and the “PBM E-score” value was -0.0404. GCGTGTTA was tested, and the “PBM E-score” value was -0.143. With AAACCGAA the “PBM E-score” value was -0.00034. In the case of CCAAATTA, the “PBM E-score” value is reported as 0.193. For CCCTAACG, the “PBM E-score” value was -0.00597. With CCACTTTA the “PBM E-score” value was -0.0486. With AACTTTGC the “PBM E-score” value was -0.0347. In the case of CGAGTTTA, the “PBM E-score” value is reported as 0.0699. For GTTGCTTA, the “PBM E-score” value was -0.0221. With AACATCCG the “PBM E-score” value was 0.117. In the case of ACTTTGCG, the “PBM E-score” value is reported as 0.0123. For ATGAGCAG, the “PBM E-score” value was -0.0867. In the case of ACCATCCG, the “PBM E-score” value is reported as -0.0648. For TCAGCTGA, the “PBM E-score” value was 0.232. ATGCCGGG was tested, and the “PBM E-score” value was -0.0587. In the case of CCTACACA, the “PBM E-score” value is reported as -0.00332. With ACCCATCG the “PBM E-score” value was -0.0746. For AATTATAC, the “PBM E-score” value was 0.172. With AAAAGAGA the “PBM E-score” value was 0.0723. AGACAACG was tested, and the “PBM E-score” value was 0.134. For CGGATGAG, the “PBM E-score” value was -0.138. With ACGGTAGA the “PBM E-score” value was -0.158. ATTTGCCA was tested, and the “PBM E-score” value was 0.0422. With AGATAACT the “PBM E-score” value was 0.0107. For TCTCACCA, the “PBM E-score” value was -0.00173. GCGGATCA was tested, and the “PBM E-score” value was -0.116. In the case of CATATGCC, the “PBM E-score” value is reported as 0.00819. In the case of AAAATTTG, the “PBM E-score” value is reported as 0.16. With GGTGCGTA the “PBM E-score” value was -0.225. With ATGGTGTA the “PBM E-score” value was -0.117. In the case of GGAGCACA, the “PBM E-score” value is reported as -0.0444. In the case of AGCGCTCC, the “PBM E-score” value is reported as -0.0666. In the case of ACCGCAAT, the “PBM E-score” value is reported as 0.113. With CATCTTGC the “PBM E-score” value was 0.0746. For CCACAGCA, the “PBM E-score” value was -0.0336. ATGCTAAA was tested, and the “PBM E-score” value was 0.131. CAAAAATC was tested, and the “PBM E-score” value was 0.163. For AGCGTAAA, the “PBM E-score” value was 0.0473. In the case of AACACGCG, the “PBM E-score” value is reported as -0.0423. With GTAACCGA the “PBM E-score” value was -0.00145. For ATGAAGTG, the “PBM E-score” value was -0.112. With CTGAGAGA the “PBM E-score” value was -0.0585. ATCAGTGC was tested, and the “PBM E-score” value was 0.0894. In the case of ATGTACGA, the “PBM E-score” value is reported as 0.215. In the case of CAGGAACG, the “PBM E-score” value is reported as 0.0662. AAAAGCGT was tested, and the “PBM E-score” value was 0.0619. In the case of AAGCTATC, the “PBM E-score” value is reported as 0.0462. In the case of GCCATGAC, the “PBM E-score” value is reported as 0.00759. In the case of GTAATTCA, the “PBM E-score” value is reported as 0.052. With ACCTCCAG the “PBM E-score” value was -0.0741. With CGACAGGC the “PBM E-score” value was -0.152. ACGGGTAG was tested, and the “PBM E-score” value was -0.0737. AGGCCCCC was tested, and the “PBM E-score” value was -0.403. In the case of TAAGTCGA, the “PBM E-score” value is reported as 0.0435. With GTTCGATA the “PBM E-score” value was 0.1. For AATCCCCG, the “PBM E-score” value was -0.0127. With ATCCGGGC the “PBM E-score” value was -0.0537. In the case of AAAGGTCC, the “PBM E-score” value is reported as 0.133. With AGAGAGTG the “PBM E-score” value was -0.169. With ACCTTGGA the “PBM E-score” value was -0.117. With GCTTTTTA the “PBM E-score” value was 0.0345. With ACTTATGA the “PBM E-score” value was 0.187. In the case of CTGGATAA, the “PBM E-score” value is reported as -0.0534. With ACGTGAGA the “PBM E-score” value was -0.163. In the case of CTAGTGTC, the “PBM E-score” value is reported as 0.148. With AATTAATT the “PBM E-score” value was 0.168. AGGACGTG was tested, and the “PBM E-score” value was 0.303. In the case of GTTCTCGA, the “PBM E-score” value is reported as 0.0715. For AGTTCTAA, the “PBM E-score” value was 0.165. AGTGACTC was tested, and the “PBM E-score” value was -0.126. ACCACGCA was tested, and the “PBM E-score” value was -0.139. For CATACGCC, the “PBM E-score” value was -0.00717. CCGGAAGA was tested, and the “PBM E-score” value was 0.0498. In the case of AGTAAGGC, the “PBM E-score” value is reported as -0.0642. With GAGTTGGC the “PBM E-score” value was -0.155. CCCCAATA was tested, and the “PBM E-score” value was -0.122. With AAACCATC the “PBM E-score” value was 0.0969. For AACCGACG, the “PBM E-score” value was 0.0303. In the case of GGGCCAAA, the “PBM E-score” value is reported as -0.0172. CGTTGATA was tested, and the “PBM E-score” value was 0.189. With GTTCCAGA the “PBM E-score” value was 0.102. ATTCAATC was tested, and the “PBM E-score” value was 0.122. In the case of ACGTACAG, the “PBM E-score” value is reported as -0.0675. In the case of ACGACGCG, the “PBM E-score” value is reported as 0.144. In the case of GCAGCAGC, the “PBM E-score” value is reported as 0.0679. With GCACATCA the “PBM E-score” value was -0.0992. AGGAGATG was tested, and the “PBM E-score” value was -0.231. In the case of TAGACTAA, the “PBM E-score” value is reported as -0.0893. With CACTGTGG the “PBM E-score” value was -0.0512. GAAGGTCC was tested, and the “PBM E-score” value was -0.055. With ATGGTTCG the “PBM E-score” value was 0.0816. In the case of GGTCAATA, the “PBM E-score” value is reported as 0.026. With ACGTTACC the “PBM E-score” value was -0.153. For TGGGTTAA, the “PBM E-score” value was -0.0198. For CCAGGGAA, the “PBM E-score” value was -0.283. With GTGTCACA the “PBM E-score” value was 0.261. CGATGGGA was tested, and the “PBM E-score” value was -0.0516. ACACCTGG was tested, and the “PBM E-score” value was -0.0963. CGCAACTC was tested, and the “PBM E-score” value was 0.191. With GCGAGTCA the “PBM E-score” value was -0.125. With TAGCACCA the “PBM E-score” value was -0.122. AACAAAAA was tested, and the “PBM E-score” value was 0.15. In the case of AGGTTAGG, the “PBM E-score” value is reported as -0.153. For ACCCAGGT, the “PBM E-score” value was -0.312. In the case of ACGGAAAT, the “PBM E-score” value is reported as 0.212. For GAACGCAA, the “PBM E-score” value was 0.104. For CTTGCGAA, the “PBM E-score” value was 0.158. In the case of ATCGTCGG, the “PBM E-score” value is reported as 0.0703. With ACTCGTTC the “PBM E-score” value was -0.0159. With ACTGCGTC the “PBM E-score” value was -0.0319. With ATGCCGCC the “PBM E-score” value was 0.0974. With CTTGCATC the “PBM E-score” value was -0.193. AAAAGACC was tested, and the “PBM E-score” value was 0.00338. With CATGCAAC the “PBM E-score” value was 0.0683. For CCAGCGAC, the “PBM E-score” value was -0.143. In the case of CTAATAAC, the “PBM E-score” value is reported as 0.222. With AGTATAGG the “PBM E-score” value was 0.0498. For ACTCTTTA, the “PBM E-score” value was -0.0509. With GTGCGTGA the “PBM E-score” value was 0.137. AATGCGTA was tested, and the “PBM E-score” value was -0.0351. In the case of CTCGCGCC, the “PBM E-score” value is reported as -0.167. In the case of AGCGACTA, the “PBM E-score” value is reported as 0.0409. With ACATCCTA the “PBM E-score” value was 0.0184. CAAGGCTA was tested, and the “PBM E-score” value was 0.0109. With ATGTTCCG the “PBM E-score” value was 0.158. In the case of AACCGGAT, the “PBM E-score” value is reported as 0.163. For ACAATTAG, the “PBM E-score” value was 0.146. CCCGCACC was tested, and the “PBM E-score” value was -0.182. GATCATCC was tested, and the “PBM E-score” value was -0.161. CACGTCCG was tested, and the “PBM E-score” value was 0.0782. With AGAGTTTA the “PBM E-score” value was 0.129. With AGAGACAT the “PBM E-score” value was 0.43. AGTGACGA was tested, and the “PBM E-score” value was 0.112. CGGACGGA was tested, and the “PBM E-score” value was -0.00604. In the case of GGGGTTAA, the “PBM E-score” value is reported as -0.1. With AAACTGGT the “PBM E-score” value was 0.0799.
